# According to the supplement of paper PMC8728848:
# The other results are listed elsewhere or left out.
# B1: ClecSol-Fc (Cryptosporidium parvum) (protein)
# chain: CPEGWISNGEKTRCFKLVTFDRPRTFSHGFKACNDLGGTEVETRRRNGSKETNEYPVTLASVYKLSDEEAIRRTLVEQGDIHKTANGCFVGLRKYAFFRYPPGWYWIDSGSPVSVRDSEINWTSSYNASWLLRFKFPFEKCGFFDIGGLGRRPCWLIDSELSCAVCGTVAYDSGGLNPNKYSELIKQTDEIISKEPKLDLPGYNNLNCTDAWENNLSVGLCQNVSNILDSAWSSYQSSLNFPSINFNWKEDSTNEGGDQVYHNSYLDLPRYKQKKTFYWDQDPGTIPALSDEMKLIGLSAQPTYHPLDRSSSGSFESDSTESGRANEERNDTLEEMIYKQSSDSIEDILVPVTKPIFSDYSSIGRNSGVEEVYSSNVSTISSKGVVFPNTTTSSDNDFTKNNPANSSKHTSTSTTTNTTTTTTRTTTTTTTTTTTTTTTTTTTTETTTTKKSTTATKNTTTT
# What was measured:
# Experiment in all cases: glycan array binding signal (z-score within array); higher = stronger binding
# Conditions in all cases: glycan notation: IUPAC condensed, linker removed
# Fuc(a1-2)Gal = target: Fuc(a1-2)Gal
# Procedure, shortened: (§1)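 From the Consortium for Functional Glycomics database, 3228 arrays were curated, keeping only those whose protein sequence was available. Binding is given as a within-array Z-score averaged across arrays sharing a protein sequence and across linkers. Negative Z-scores can be read as non-binding.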
# Fuc(a1-2)Gal(b1-3)GalNAc = target: Fuc(a1-2)Gal(b1-3)GalNAc
# Procedure, shortened: as §1
# [1] = target: Fuc(a1-2)Gal(b1-3)GalNAc(a1-3)[Fuc(a1-2)]Gal(b1-4)Glc
# Procedure, shortened: as §1
# [2] = target: Fuc(a1-2)Gal(b1-3)GalNAc(a1-3)[Fuc(a1-2)]Gal(b1-4)GlcNAc
# Procedure, shortened: as §1
# [3] = target: Fuc(a1-2)Gal(b1-3)GalNAc(b1-3)Gal
# Procedure, shortened: as §1
# [4] = target: Fuc(a1-2)Gal(b1-3)GalNAc(b1-3)Gal(a1-4)Gal(b1-4)Glc
# Procedure, shortened: as §1
# [5] = target: Fuc(a1-2)Gal(b1-3)GalNAc(b1-4)[Neu5Ac(a2-3)]Gal(b1-4)Glc
# Procedure, shortened: as §1
# Fuc(a1-2)Gal(b1-3)GlcNAc = target: Fuc(a1-2)Gal(b1-3)GlcNAc
# Procedure, shortened: as §1
# [6] = target: Fuc(a1-2)Gal(b1-3)GlcNAc(b1-2)Man(a1-3)[Fuc(a1-2)Gal(b1-3)GlcNAc(b1-2)Man(a1-6)]Man(b1-4)GlcNAc(b1-4)GlcNAc
# Procedure, shortened: as §1
# [7] = target: Fuc(a1-2)Gal(b1-3)GlcNAc(b1-2)Man(a1-3)[Fuc(a1-2)Gal(b1-3)GlcNAc(b1-2)Man(a1-6)]Man(b1-4)GlcNAc(b1-4)[Fuc(a1-6)]GlcNAc
# Procedure, shortened: as §1
# [8] = target: Fuc(a1-2)Gal(b1-3)GlcNAc(b1-3)Gal(b1-4)Glc
# Procedure, shortened: as §1
# [9] = target: Fuc(a1-2)Gal(b1-3)GlcNAc(b1-3)GalNAc
# Procedure, shortened: as §1
# [10] = target: Fuc(a1-2)Gal(b1-3)GlcNAc(b1-3)[Fuc(a1-2)Gal(b1-3)GlcNAc(b1-6)]GalNAc
# Procedure, shortened: as §1
# [11] = target: Fuc(a1-2)Gal(b1-3)GlcNAc(b1-3)[Gal(b1-4)GlcNAc(b1-6)]Gal(b1-4)Glc
# Procedure, shortened: as §1
# [12] = target: Fuc(a1-2)Gal(b1-3)GlcNAc(b1-3)[Neu5Ac(a2-6)Gal(b1-4)GlcNAc(b1-6)]Gal(b1-4)Glc
# Procedure, shortened: as §1
# [13] = target: Fuc(a1-2)Gal(b1-3)GlcNAc6S
# Procedure, shortened: as §1
# [14] = target: Fuc(a1-2)Gal(b1-3)[Fuc(a1-4)]GlcNAc
# Procedure, shortened: as §1
# [15] = target: Fuc(a1-2)Gal(b1-3)[Fuc(a1-4)]GlcNAc(b1-2)Man(a1-3)[Fuc(a1-2)Gal(b1-3)[Fuc(a1-4)]GlcNAc(b1-2)Man(a1-3)]Man(b1-4)GlcNAc(b1-4)GlcNAc
# Procedure, shortened: as §1
# [16] = target: Fuc(a1-2)Gal(b1-3)[Fuc(a1-4)]GlcNAc(b1-2)Man(a1-3)[Fuc(a1-2)Gal(b1-3)[Fuc(a1-4)]GlcNAc(b1-2)Man(a1-6)]Man(b1-4)GlcNAc(b1-4)[Fuc(a1-6)]GlcNAc(b1-4)[Fuc(a1-6)]GlcNAc
# Procedure, shortened: as §1
# [17] = target: Fuc(a1-2)Gal(b1-3)[Fuc(a1-4)]GlcNAc(b1-3)[Fuc(a1-3)[Gal(b1-4)]GlcNAc(b1-6)]Gal(b1-4)Glc
# Procedure, shortened: as §1
# [18] = target: Fuc(a1-2)Gal(b1-3)[Fuc(a1-4)]GlcNAc(b1-3)[Gal(b1-4)GlcNAc(b1-6)]Gal(b1-4)Glc
# Procedure, shortened: as §1
# Fuc(a1-2)Gal(b1-4)Glc = target: Fuc(a1-2)Gal(b1-4)Glc
# Procedure, shortened: as §1
# Fuc(a1-2)Gal(b1-4)Glc6S = target: Fuc(a1-2)Gal(b1-4)Glc6S
# Procedure, shortened: as §1
# Fuc(a1-2)Gal(b1-4)GlcNAc = target: Fuc(a1-2)Gal(b1-4)GlcNAc
# Procedure, shortened: as §1
# [19] = target: Fuc(a1-2)Gal(b1-4)GlcNAc(b1-2)Man
# Procedure, shortened: as §1
# [20] = target: Fuc(a1-2)Gal(b1-4)GlcNAc(b1-2)Man(a1-3)[Fuc(a1-2)Gal(b1-4)GlcNAc(b1-2)Man(a1-6)]Man(b1-4)GlcNAc(b1-4)GlcNAc
# Procedure, shortened: as §1
# [21] = target: Fuc(a1-2)Gal(b1-4)GlcNAc(b1-2)Man(a1-3)[Fuc(a1-2)Gal(b1-4)GlcNAc(b1-2)Man(a1-6)]Man(b1-4)GlcNAc(b1-4)[Fuc(a1-6)]GlcNAc
# Procedure, shortened: as §1
# [22] = target: Fuc(a1-2)Gal(b1-4)GlcNAc(b1-2)[Fuc(a1-2)Gal(b1-4)GlcNAc(b1-4)]Man(a1-3)[Fuc(a1-2)Gal(b1-4)GlcNAc(b1-2)Man(a1-6)]Man(b1-4)GlcNAc(b1-4)GlcNAc
# Procedure, shortened: as §1
# [23] = target: Fuc(a1-2)Gal(b1-4)GlcNAc(b1-3)Gal(b1-4)GlcNAc
# Procedure, shortened: as §1
# [24] = target: Fuc(a1-2)Gal(b1-4)GlcNAc(b1-3)Gal(b1-4)GlcNAc(b1-2)Man(a1-3)[Fuc(a1-2)Gal(b1-4)GlcNAc(b1-3)Gal(b1-4)GlcNAc(b1-2)Man(a1-6)]Man(b1-4)GlcNAc(b1-4)GlcNAc
# Procedure, shortened: as §1
# [25] = target: Fuc(a1-2)Gal(b1-4)GlcNAc(b1-3)Gal(b1-4)GlcNAc(b1-3)Gal(b1-4)GlcNAc
# Procedure, shortened: as §1
# [26] = target: Fuc(a1-2)Gal(b1-4)GlcNAc(b1-3)GalNAc
# Procedure, shortened: as §1
# [27] = target: Fuc(a1-2)Gal(b1-4)GlcNAc(b1-3)[Fuc(a1-2)Gal(b1-4)GlcNAc(b1-6)]GalNAc
# Procedure, shortened: as §1
# [28] = target: Fuc(a1-2)Gal(b1-4)GlcNAc(b1-3)[Fuc(a1-3)[Gal(b1-4)]GlcNAc(b1-6)]Gal(b1-4)Glc
# Procedure, shortened: as §1
# [29] = target: Fuc(a1-2)Gal(b1-4)GlcNAc(b1-6)GalNAc
# Procedure, shortened: as §1
# [30] = target: Fuc(a1-2)Gal(b1-4)GlcNAc6S
# Procedure, shortened: as §1
# [31] = target: Fuc(a1-2)Gal(b1-4)[Fuc(a1-3)]GlcNAc
# Procedure, shortened: as §1
# [32] = target: Fuc(a1-2)Gal(b1-4)[Fuc(a1-3)]GlcNAc(b1-2)Man(a1-3)[Fuc(a1-2)Gal(b1-4)[Fuc(a1-3)]GlcNAc(b1-2)Man(a1-6)]Man(b1-4)GlcNAc(b1-4)[Fuc(a1-6)]GlcNAc
# Procedure, shortened: as §1
# [33] = target: Fuc(a1-2)Gal(b1-4)[Fuc(a1-3)]GlcNAc(b1-2)[Fuc(a1-2)Gal(b1-4)[Fuc(a1-3)]GlcNAc(b1-4)]Man(a1-3)[Fuc(a1-2)Gal(b1-4)[Fuc(a1-3)]GlcNAc(b1-2)Man(a1-6)]Man(b1-4)GlcNAc(b1-4)GlcNAc
# Procedure, shortened: as §1
# [34] = target: Fuc(a1-2)Gal(b1-4)[Fuc(a1-3)]GlcNAc(b1-3)Gal(b1-4)[Fuc(a1-3)]GlcNAc
# Procedure, shortened: as §1
# [35] = target: Fuc(a1-2)Gal(b1-4)[Fuc(a1-3)]GlcNAc(b1-3)Gal(b1-4)[Fuc(a1-3)]GlcNAc(b1-3)Gal(b1-4)[Fuc(a1-3)]GlcNAc
# Procedure, shortened: as §1
# [36] = target: Fuc(a1-2)Gal(b1-4)[Fuc(a1-3)]GlcNAc(b1-3)GalNAc
# Procedure, shortened: as §1
# [37] = target: Fuc(a1-2)Gal(b1-4)[Fuc(a1-3)]GlcNAc(b1-3)[Neu5Ac(a2-6)Gal(b1-4)GlcNAc(b1-6)]Gal(b1-4)Glc
# Procedure, shortened: as §1
# [38] = target: Fuc(a1-2)Gal3S(b1-4)GlcNAc
# Procedure, shortened: as §1
# [39] = target: Fuc(a1-2)Gal6S(b1-3)GlcNAc
# Procedure, shortened: as §1
binder,measurement,setting,value
B1,glycan array binding signal (z-score),Fuc(a1-2)Gal,-0.23
same,glycan array binding signal (z-score),Fuc(a1-2)Gal(b1-3)GalNAc,-0.212
same,glycan array binding signal (z-score),[1],-0.07
same,glycan array binding signal (z-score),[2],0.031
same,glycan array binding signal (z-score),[3],-0.223
same,glycan array binding signal (z-score),[4],-0.029
same,glycan array binding signal (z-score),[5],-0.167
same,glycan array binding signal (z-score),Fuc(a1-2)Gal(b1-3)GlcNAc,-0.193
same,glycan array binding signal (z-score),[6],0.169
same,glycan array binding signal (z-score),[7],0.078
same,glycan array binding signal (z-score),[8],-0.209
same,glycan array binding signal (z-score),[9],0.073
same,glycan array binding signal (z-score),[10],-0.169
same,glycan array binding signal (z-score),[11],0.047
same,glycan array binding signal (z-score),[12],-0.161
same,glycan array binding signal (z-score),[13],-0.129
same,glycan array binding signal (z-score),[14],-0.087
same,glycan array binding signal (z-score),[15],-0.179
same,glycan array binding signal (z-score),[16],-0.14
same,glycan array binding signal (z-score),[17],-0.228
same,glycan array binding signal (z-score),[18],-0.122
same,glycan array binding signal (z-score),Fuc(a1-2)Gal(b1-4)Glc,-0.174
same,glycan array binding signal (z-score),Fuc(a1-2)Gal(b1-4)Glc6S,0.153
same,glycan array binding signal (z-score),Fuc(a1-2)Gal(b1-4)GlcNAc,-0.125
same,glycan array binding signal (z-score),[19],-0.1
same,glycan array binding signal (z-score),[20],-0.039
same,glycan array binding signal (z-score),[21],-0.087
same,glycan array binding signal (z-score),[22],-0.195
same,glycan array binding signal (z-score),[23],-0.091
same,glycan array binding signal (z-score),[24],-0.154
same,glycan array binding signal (z-score),[25],-0.03
same,glycan array binding signal (z-score),[26],-0.207
same,glycan array binding signal (z-score),[27],-0.098
same,glycan array binding signal (z-score),[28],0.13
same,glycan array binding signal (z-score),[29],0.51
same,glycan array binding signal (z-score),[30],-0.009
same,glycan array binding signal (z-score),[31],-0.209
same,glycan array binding signal (z-score),[32],0.119
same,glycan array binding signal (z-score),[33],0.069
same,glycan array binding signal (z-score),[34],-0.071
same,glycan array binding signal (z-score),[35],-0.192
same,glycan array binding signal (z-score),[36],-0.234
same,glycan array binding signal (z-score),[37],-0.133
same,glycan array binding signal (z-score),[38],-0.19
same,glycan array binding signal (z-score),[39],-0.025
